In the supplement of paper PMC8792480:
Counter-ions that a name gives are not always drawn. The list shows a part of the results. Single values are uncertain, as repeats are few or missing.

What was measured:
[1] = test system: A549; assay: cell-surface PD-L1 MFI ratio relative to radiation alone (isotype-subtracted); higher = higher PD-L1 surface expression; settings: inducer: radiation 8 Gy; 10 µM; 24 h
Procedure: (§1)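 A549 and H460 NSCLC cells were treated with each library drug at 10 uM, then with radiation (8 Gy) or cisplatin (4 uM), and incubated for 24 h. Cell-surface PD-L1 was measured by flow cytometry as an MFI ratio: (MFI drug+inducer - MFI isotype)/(MFI inducer alone - MFI isotype). Hits were defined as ratio < 0.75.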

[2] = test system: NCI-H460; assay: as above; settings: inducer: radiation 8 Gy; 10 µM; 24 h
Procedure: as §1

[3] = test system: A549; assay: cell-surface PD-L1 MFI ratio relative to cisplatin alone (isotype-subtracted); higher = higher PD-L1 surface expression; settings: inducer: cisplatin 4 uM; 10 µM; 24 h
Procedure: as §1

[4] = test system: NCI-H460; assay: as above; settings: inducer: cisplatin 4 uM; 10 µM; 24 h
Procedure: as §1
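For cell-surface PD-L1 MFI ratio relative to radiation alone (isotype-subtracted) in this document: surface PD-L1 on NSCLC cells stained with a PE-labelled anti-human PD-L1 antibody before flow cytometry, screening a library of roughly two hundred mostly kinase and epigenetic inhibitors.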

| Structure (SMILES) | cell-surface PD-L1 MFI ratio [1] | cell-surface PD-L1 MFI ratio [2] | cell-surface PD-L1 MFI ratio [3] | cell-surface PD-L1 MFI ratio [4] |
| --- | --- | --- | --- | --- |
| CC(C)(CO)n1cc(C(=O)c2cncc(NC(=O)Cc3ccc(Cl)cn3)c2)c2cnc(N)nc21 | inactive: 0.833 | inactive: 1.05 | inactive: 1.09 | inactive: 1.13 |
| O=S(=O)(c1cccc2cnccc12)N1CCCNCC1 [Fasudil (HA-1077) HCl] | inactive: 0.903 | inactive: 1.08 | active: 0.679 | inactive: 0.968 |
| CN1CCN(CCOc2cc(OC3CCOCC3)c3c(Nc4c(Cl)ccc5c4OCO5)ncnc3c2)CC1 [Saracatinib (AZD0530)] | inactive: 0.793 | inactive: 0.923 |  | active: 0.583 |
| Cc1cc(C)cc(Oc2ccc(CNC(=O)[C@H](C)N)cc2C)c1 | inactive: 0.931 | inactive: 1.71 | active: 0.471 | active: 0.714 |
| O=C(NC[C@H](O)CN1CCc2ccccc2C1)c1cc(NC2COC2)ncn1 | active: 0.748 | inactive: 1.02 |  | inactive: 0.92 |
| Cc1n[nH]c2ncc(C(=O)N3CCC[C@H]3c3ccc(Cl)cc3)cc12 | active: 0.667 | inactive: 1.01 |  | inactive: 0.848 |
| CNc1nc(-c2ccc3c(N)n[nH]c3c2)cc(N2C[C@@H](C(=O)NC3CCCCC3)CC[C@H]2C)n1 | inactive: 0.836 | inactive: 0.833 |  | inactive: 1.25 |
| CC[C@@H](N)CNc1ccnc(-c2cc(-c3cnn(C)c3)ccc2O)n1 | inactive: 1.67 | inactive: 1.1 |  | inactive: 0.896 |
| CCC(C)(C)C(=O)O[C@H]1C[C@@H](C)C=C2C=C[C@H](C)[C@H](CC[C@@H]3C[C@@H](O)CC(=O)O3)[C@H]21 [Simvastatin] | inactive: 1.01 | inactive: 1.31 | inactive: 1.08 | inactive: 1.82 |
| Cc1cnc(-c2cnc(NCCNc3ccc(C#N)cn3)nc2-c2ccc(Cl)cc2Cl)[nH]1 | inactive: 0.819 | inactive: 0.821 | inactive: 0.845 | inactive: 1.06 |
| CCCCCCCCCCCCCCCCn1cc[n+](Cc2ccccc2)c1C | inactive: 2.66 | active: 0.738 | inactive: 1.67 | inactive: 1.02 |
| CCN(CCCOc1ccc2c(Nc3cc(CC(=O)Nc4cccc(F)c4)[nH]n3)ncnc2c1)CCOP(=O)(O)O [Barasertib (AZD1152-HQPA, AZD2811)] | inactive: 1.2 | inactive: 1.69 | inactive: 0.988 | inactive: 1.14 |
| O=C(/C=C\n1cnc(-c2cc(C(F)(F)F)cc(C(F)(F)F)c2)n1)NNc1cnccn1 [Selinexor (KPT-330)] | inactive: 1.41 | inactive: 1.04 | inactive: 0.855 | inactive: 0.984 |
| CN(c1ncccc1CNc1nc(Nc2ccc3c(c2)CC(=O)N3)ncc1C(F)(F)F)S(C)(=O)=O | inactive: 0.96 | inactive: 1.51 | inactive: 0.811 | active: 0.74 |
| CN(C(=O)c1ccc(F)cc1C(F)(F)F)C1CCN(c2nnc(-c3ccnn3C)c3ccccc23)CC1 | inactive: 1.1 | inactive: 1.38 |  | inactive: 1.14 |
| CS(=O)(=O)c1ccc(C(=O)Nc2ccc(Cl)c(-c3ccccn3)c2)c(Cl)c1 [Vismodegib (GDC-0449)] | inactive: 1.14 | inactive: 1.45 | active: 0.526 | inactive: 1.14 |
| O=C(N/N=C/c1ccc([N+](=O)[O-])o1)c1ccc(O)cc1 [Nifuroxazide] | inactive: 0.809 | inactive: 1.2 |  | inactive: 1.31 |
| CC[C@H](C)C(=O)O[C@H]1C[C@@H](C)C=C2C=C[C@H](C)[C@H](CC[C@@H]3C[C@@H](O)CC(=O)O3)[C@H]21 [Lovastatin] | inactive: 1.17 | inactive: 0.97 | inactive: 1.28 | inactive: 0.848 |
| C[C@@H](Oc1ccc2[nH]nc(/C=C/c3cnn(CCO)c3)c2c1)c1c(Cl)cncc1Cl | inactive: 1.43 | inactive: 1.36 |  | inactive: 1.21 |
| CCn1c2ccccc2c2cc(-n3nncc3-c3ccccc3)ccc21 | inactive: 1.91 | inactive: 2.64 |  | inactive: 1.3 |
| COc1cc2nc(N3CCCC3)nc(NCCCCCN3CCCC3)c2cc1OC | inactive: 1 | inactive: 1.35 | active: 0.738 | inactive: 1.46 |
| O=S(=O)(c1cccc2c(I)cccc12)N1CCCNCC1 | inactive: 0.776 | inactive: 0.988 | active: 0.502 | active: 0.626 |
| CC(C)C[C@H](NC(=O)[C@H](Cc1ccccc1)NC(=O)c1cnccn1)B(O)O [Bortezomib (PS-341)] | inactive: 1.1 | active: 0.673 | inactive: 1.68 | inactive: 1.53 |
| Cn1cc(-c2ccc(F)c(C(F)(F)F)c2)nc1C1CCN(c2ncnc3[nH]ncc23)CC1 | inactive: 1.24 | inactive: 1.61 | active: 0.647 | inactive: 1.22 |
| CN(C)C(=O)c1ccc(S(=O)(=O)c2ccc(NC(=O)[C@@](C)(O)C(F)(F)F)c(Cl)c2)cc1 | inactive: 0.915 | inactive: 1.34 | inactive: 1.02 | inactive: 1.51 |
| O=C(Nc1cc(C(F)(F)F)ccc1N1CCCCC1)c1ccncc1 | inactive: 1.22 | inactive: 1.67 | active: 0.65 | inactive: 1.16 |

| Structure (SMILES) | cell-surface PD-L1 MFI ratio [1] | cell-surface PD-L1 MFI ratio [2] | cell-surface PD-L1 MFI ratio [3] | cell-surface PD-L1 MFI ratio [4] |
| --- | --- | --- | --- | --- |
| Cc1nc(-c2cn3c(n2)-c2ccc(-c4cnn(C(C)(C)C(N)=O)c4)cc2OCC3)n(C(C)C)n1 [Taselisib (GDC 0032)] | inactive: 0.833 | active: 0.673 | inactive: 0.838 | inactive: 0.793 |
| CNC(=O)c1cc(Oc2ccc(NC(=O)Nc3ccc(Cl)c(C(F)(F)F)c3)cc2)ccn1 [Sorafenib] | inactive: 1.22 | inactive: 1.27 | inactive: 1.34 | inactive: 1.53 |
| CCc1ccc(/C=C2/SC(=S)NC2=O)cc1 |  | inactive: 1 | active: 0.567 | inactive: 0.798 |
| CCn1cc(-c2cccc(C(F)(F)F)c2)c2sc(C(=N)NC3CCS(=O)(=O)CC3)cc2c1=O |  | active: 0.72 | active: 0.476 | active: 0.594 |
| COc1cc2c(Oc3ccc4[nH]c(C)cc4c3F)ccnc2cc1OCC1(N)CC1 [Anlotinib] |  | inactive: 1.38 | inactive: 0.973 | inactive: 1.45 |
| Cc1c(F)cc(C(=O)NC2CC2)cc1-c1ccc(C(=O)NCC(C)(C)C)cn1 |  | inactive: 0.958 | inactive: 1.15 | inactive: 1.22 |
| COc1ccc(-c2nc(-c3cc(C(F)(F)F)cc(C(F)(F)F)c3)n(Cc3ccc(C(N)=O)cc3)c2-c2ccc(OC)cc2)cc1 [Apoptozole] |  | inactive: 0.929 | active: 0.348 | active: 0.562 |
| CCOC(=O)CCNc1cc(N2CCc3ccccc3CC2)nc(-c2ccccn2)n1 |  | inactive: 0.958 | active: 0.623 | active: 0.717 |
| Cc1cc(F)c(C(=O)Nc2cccc(-c3nncn3C(C)C)n2)cc1-n1cnc(C2CC2)c1 [Selonsertib (GS-4997)] |  | inactive: 0.982 | inactive: 1.12 | inactive: 0.816 |
| Cc1ccc(C(=O)c2cc(O)c(O)c([N+](=O)[O-])c2)cc1 [Tolcapone] |  | inactive: 1.48 | inactive: 0.93 | inactive: 1.38 |
| CC(C)(C)NC(=O)c1cncn1C1CCN(c2ccc(-c3nnc(C(F)(F)F)o3)cn2)CC1 |  | inactive: 1.82 | active: 0.68 | inactive: 1.08 |
| CN1CCN(c2nc(C3=C(c4c[nH]c5ccccc45)C(=O)NC3=O)c3ccccc3n2)CC1 [Sotrastaurin] |  | inactive: 2.99 | inactive: 2.68 | inactive: 1.89 |
| O=C(c1cc(Cc2n[nH]c(=O)c3ccccc23)ccc1F)N1CCN(C(=O)C2CC2)CC1 [Olaparib] |  | inactive: 1.18 | active: 0.542 | inactive: 1.03 |
| CCOc1ccn(-c2ccc(F)cc2)c(=O)c1C(=O)Nc1ccc(Oc2ccnc(N)c2Cl)c(F)c1 |  | inactive: 1.05 | inactive: 1.53 | inactive: 1.67 |
| Cc1nc(Nc2ncc(C(=O)Nc3c(C)cccc3Cl)s2)cc(N2CCN(CCO)CC2)n1 [Dasatinib] |  | inactive: 1.53 | inactive: 0.948 | active: 0.656 |
| Clc1ccc(NN=C(c2ccccc2)c2ccccn2)nc1 |  | inactive: 1.03 | inactive: 1.62 | active: 0.567 |
| c1ccc(-c2nn3c(c2-c2ccnc4cc(OCCN5CCOCC5)ccc24)CCC3)nc1 |  | inactive: 1.42 |  | inactive: 1.17 |
| CCC(=O)Nc1cccc(Oc2nc(Nc3ccc(N4CCN(C)CC4)cc3OC)ncc2Cl)c1 |  | inactive: 1.17 | inactive: 0.759 | inactive: 1.18 |
| CC(C)Oc1ccc(-c2c[nH]cc2CN(C)CCN)cc1 |  | inactive: 2.1 | inactive: 0.77 | inactive: 1.09 |
| COc1ccc(-c2cc3nccn3c(Nc3ncccc3C(N)=O)n2)cc1OC |  | inactive: 1.16 | inactive: 0.953 | inactive: 1 |
| COc1cccc(OCCCN)c1-c1cc(Nc2cnc(C#N)cn2)n[nH]1 |  | inactive: 0.899 | active: 0.733 | active: 0.532 |
| CC(C)S(=O)(=O)c1ccc2nccc(Nc3ccc4scnc4c3)c2c1 |  | inactive: 1.33 | active: 0.592 | inactive: 1.34 |
| Nc1ccc(C(=O)Nc2cccc(-c3nc(N4CCOCC4)c4oc5ncccc5c4n3)c2)cn1 |  | inactive: 0.81 | active: 0.711 | active: 0.627 |
| C[C@@H](N)[C@H]1CC[C@H](C(=O)Nc2ccncc2)CC1 |  | inactive: 1.27 | active: 0.568 | inactive: 0.976 |
| O=C(/C=C/c1ccc2ccc(C(F)(F)F)cc2n1)c1ccncc1 |  | inactive: 1.07 | active: 0.579 | inactive: 0.984 |
